Article PMC9911399, “Two distinct binding modes provide the RNA-binding protein RbFox with extraordinary sequence specificity”
Residue numbers refer to the chain shown, from its start. The list shows a part of the results.

T1: RBFOX1 RRM (Homo sapiens, UniProt Q9NWB1 109-208)
T1 sequence: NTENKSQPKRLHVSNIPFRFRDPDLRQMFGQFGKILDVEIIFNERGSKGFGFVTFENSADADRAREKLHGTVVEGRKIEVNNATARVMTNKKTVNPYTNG

B1: CAGUCUC (DNA:RNA)
RNA: GGGAGACCGGAAUUCAGAUUGUCCCAGUCUCUUAAAUCCCGUCGUAGCCACCA
DNA 1: CAATCTGAATTCCGGTCTCCC
DNA 2: TGGTGGCTACGACGGGATT
B2: GGACGAA (DNA:RNA)
RNA: GGGAGACCGGAAUUCAGAUUGUCCGGACGAAUUAAAUCCCGUCGUAGCCACCA
DNA 1: CAATCTGAATTCCGGTCTCCC
DNA 2: TGGTGGCTACGACGGGATT
B3: UCCUGGU (DNA:RNA)
RNA: B1 RNA with C25U, A26C, G27C, C29G, U30G, C31U
DNA 1: CAATCTGAATTCCGGTCTCCC
DNA 2: TGGTGGCTACGACGGGATT
B4: ACGGUCA (DNA:RNA)
RNA: B1 RNA with C25A, A26C, U28G, C29U, U30C, C31A
DNA 1: CAATCTGAATTCCGGTCTCCC
DNA 2: TGGTGGCTACGACGGGATT
B5: GAGAUAC (DNA:RNA)
RNA: B1 RNA with C25G, U28A, C29U, U30A
DNA 1: CAATCTGAATTCCGGTCTCCC
DNA 2: TGGTGGCTACGACGGGATT
B6: UUAGCCG (DNA:RNA)
RNA: B1 RNA with C25U, A26U, G27A, U28G, U30C, C31G
DNA 1: CAATCTGAATTCCGGTCTCCC
DNA 2: TGGTGGCTACGACGGGATT
B7: GUACUUC (DNA:RNA)
RNA: B2 RNA with G26U, G29U, A30U, A31C
DNA 1: CAATCTGAATTCCGGTCTCCC
DNA 2: TGGTGGCTACGACGGGATT
B8: UUCCGCG (DNA:RNA)
RNA: B2 RNA with G25U, G26U, A27C, A30C, A31G
DNA 1: CAATCTGAATTCCGGTCTCCC
DNA 2: TGGTGGCTACGACGGGATT
B9: GACGCCA (DNA:RNA)
RNA: B1 RNA with C25G, G27C, U28G, U30C, C31A
DNA 1: CAATCTGAATTCCGGTCTCCC
DNA 2: TGGTGGCTACGACGGGATT
B10: AUCAUUU (DNA:RNA)
RNA: B1 RNA with C25A, A26U, G27C, U28A, C29U, C31U
DNA 1: CAATCTGAATTCCGGTCTCCC
DNA 2: TGGTGGCTACGACGGGATT
B11: CGAGGCG (DNA:RNA)
RNA: B2 RNA with G25C, C28G, A30C, A31G
DNA 1: CAATCTGAATTCCGGTCTCCC
DNA 2: TGGTGGCTACGACGGGATT
B12: UUCACUC (DNA:RNA)
RNA: B1 RNA with C25U, A26U, G27C, U28A
DNA 1: CAATCTGAATTCCGGTCTCCC
DNA 2: TGGTGGCTACGACGGGATT
B13: CUGCUUC (DNA:RNA)
RNA: B1 RNA with A26U, U28C, C29U
DNA 1: CAATCTGAATTCCGGTCTCCC
DNA 2: TGGTGGCTACGACGGGATT
B14: CGAAGUU (DNA:RNA)
RNA: B2 RNA with G25C, C28A, A30U, A31U
DNA 1: CAATCTGAATTCCGGTCTCCC
DNA 2: TGGTGGCTACGACGGGATT
B15: GAAAUCU (DNA:RNA)
RNA: B2 RNA with G26A, C28A, G29U, A30C, A31U
DNA 1: CAATCTGAATTCCGGTCTCCC
DNA 2: TGGTGGCTACGACGGGATT
B16: GGCACAA (DNA:RNA)
RNA: B2 RNA with A27C, C28A, G29C
DNA 1: CAATCTGAATTCCGGTCTCCC
DNA 2: TGGTGGCTACGACGGGATT
B17: AGGCGUG (DNA:RNA)
RNA: B2 RNA with G25A, A27G, A30U, A31G
DNA 1: CAATCTGAATTCCGGTCTCCC
DNA 2: TGGTGGCTACGACGGGATT
B18: AGUUUAC (DNA:RNA)
RNA: B1 RNA with C25A, A26G, G27U, C29U, U30A
DNA 1: CAATCTGAATTCCGGTCTCCC
DNA 2: TGGTGGCTACGACGGGATT
B19: CAGCAGU (DNA:RNA)
RNA: B1 RNA with U28C, C29A, U30G, C31U
DNA 1: CAATCTGAATTCCGGTCTCCC
DNA 2: TGGTGGCTACGACGGGATT
B20: AUACUCU (DNA:RNA)
RNA: B2 RNA with G25A, G26U, G29U, A30C, A31U
DNA 1: CAATCTGAATTCCGGTCTCCC
DNA 2: TGGTGGCTACGACGGGATT

target: T1, RBFOX1 RRM; test: EMSA; HiTS-Eq, 1 nM pool, 10 min; buffer printed only for the single-RNA assays: 10 mM Tris pH 7.5, 150 mM NaCl, 3.4 mM EDTA, 0.001% NP-40, 30 C; conditions: tags: His6 N-terminal (pET28a); label: 5' 32P
Method in brief: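 A pool of RNA with 7 randomized nucleotides, 5′-radiolabelled and with DNA-annealed flanks, was equilibrated at 1 nM for 10 min in 50 µL with purified RbFox RRM, wild type or mutant, across increasing protein concentrations. Free RNA was separated by 8% native PAGE, excised, reverse-transcribed, barcoded by PCR and sequenced. Relative association constants were obtained from read-count changes of each RNA species versus the control reaction and normalised to the cognate motif.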

Q: How did the binding signal turn out when B1 was run?
A: The binding signal was 0.00835 KA relative to UGCAUGU.

Q: For B2, which binding signal is on record?
A: Its binding signal is 0.0191 KA relative to UGCAUGU.

Q: Which binding signal does the source give for B3 here?
A: Its binding signal is 0.0147 KA relative to UGCAUGU.

Q: B4 was tested. Which binding signal did it give?
A: Its binding signal is 0.00956 KA relative to UGCAUGU.

Q: For B5, which binding signal is on record?
A: Its binding signal is 0.00794 KA relative to UGCAUGU.

Q: B6 was tested. Which binding signal did it give?
A: Its binding signal is 0.00941 KA relative to UGCAUGU.

Q: With B7 as the binder, how does the binding signal read?
A: Its binding signal is 0.00753 KA relative to UGCAUGU.

Q: With B8 as the binder, how does the binding signal read?
A: The binding signal was 0.0101 KA relative to UGCAUGU.

Q: For B9, which binding signal is on record?
A: The binding signal was 0.00741 KA relative to UGCAUGU.

Q: How did the binding signal turn out when B10 was run?
A: Its binding signal is 0.00187 KA relative to UGCAUGU.

Q: Which binding signal does the source give for B11 here?
A: The binding signal was 0.0152 KA relative to UGCAUGU.

Q: How did the binding signal turn out when B12 was run?
A: The binding signal was 0.00506 KA relative to UGCAUGU.

Q: Which binding signal does the source give for B13 here?
A: Its binding signal is 0.0207 KA relative to UGCAUGU.

Q: Which binding signal does the source give for B14 here?
A: The binding signal was 0.0104 KA relative to UGCAUGU.

Q: B15 was tested. Which binding signal did it give?
A: Its binding signal is 0.00861 KA relative to UGCAUGU.

Q: For B16, which binding signal is on record?
A: The binding signal was 0.0039 KA relative to UGCAUGU.

Q: With B17 as the binder, how does the binding signal read?
A: The binding signal was 0.0157 KA relative to UGCAUGU.

Q: For B18, which binding signal is on record?
A: Its binding signal is 0.00577 KA relative to UGCAUGU.

Q: How did the binding signal turn out when B19 was run?
A: Its binding signal is 0.00674 KA relative to UGCAUGU.

Q: With B20 as the binder, how does the binding signal read?
A: The binding signal was 0.000377 KA relative to UGCAUGU.
